# Source: the supplement of paper PMC8728848
# The list shows a part of the results.
# Tests used:
# Assay in all cases: glycan array binding signal (z-score within array); higher = stronger binding
# Conditions in all cases: glycan notation: IUPAC condensed, linker removed
# [1] = molecular target: Neu5Ac(a2-3)Gal(b1-4)GlcNAc(b1-3)Gal(b1-4)GlcNAc(b1-3)Gal(b1-4)GlcNAc
# Outline: (§1)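 The binding signal is a Z-score computed within each array and averaged over linkers. Arrays of the same protein sequence at different concentrations or buffers were also averaged together. Data originate from 3228 arrays in the Consortium for Functional Glycomics database, kept only where the protein sequence was available.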
# [2] = molecular target: Neu5Ac(a2-3)Gal(b1-4)GlcNAc(b1-3)Gal(b1-4)GlcNAc(b1-3)Gal(b1-4)GlcNAc(b1-2)Man(a1-3)[Neu5Ac(a2-3)Gal(b1-4)GlcNAc(b1-3)Gal(b1-4)GlcNAc(b1-3)Gal(b1-4)GlcNAc(b1-2)Man(a1-6)]GalNAc
# Outline: as §1
# [3] = molecular target: Neu5Ac(a2-3)Gal(b1-4)GlcNAc(b1-3)Gal(b1-4)GlcNAc(b1-3)GalNAc
# Outline: as §1
# [4] = molecular target: Neu5Ac(a2-3)Gal(b1-4)GlcNAc(b1-3)Gal(b1-4)GlcNAc(b1-3)[Neu5Ac(a2-3)Gal(b1-4)GlcNAc(b1-3)Gal(b1-4)GlcNAc(b1-6)]GalNAc
# Outline: as §1
# [5] = molecular target: Neu5Ac(a2-3)Gal(b1-4)GlcNAc(b1-3)Gal(b1-4)GlcNAc(b1-6)[Gal(b1-3)]GalNAc
# Outline: as §1
# [6] = molecular target: Neu5Ac(a2-3)Gal(b1-4)GlcNAc(b1-3)Gal(b1-4)[Fuc(a1-3)]GlcNAc
# Outline: as §1
# [7] = molecular target: Neu5Ac(a2-3)Gal(b1-4)GlcNAc(b1-3)GalNAc
# Outline: as §1
# [8] = molecular target: Neu5Ac(a2-3)Gal(b1-4)GlcNAc(b1-3)[Neu5Ac(a2-3)Gal(b1-4)GlcNAc(b1-6)]GalNAc
# Outline: as §1
# [9] = molecular target: Neu5Ac(a2-3)Gal(b1-4)GlcNAc(b1-6)GalNAc
# Outline: as §1
# [10] = molecular target: Neu5Ac(a2-3)Gal(b1-4)GlcNAc(b1-6)[Gal(b1-3)]GalNAc
# Outline: as §1
# [11] = molecular target: Neu5Ac(a2-3)Gal(b1-4)GlcNAc(b1-6)[Neu5Ac(a2-3)Gal(b1-3)]GalNAc
# Outline: as §1
# [12] = molecular target: Neu5Ac(a2-3)Gal(b1-4)GlcNAc6S
# Outline: as §1
# [13] = molecular target: Neu5Ac(a2-3)Gal(b1-4)[Fuc(a1-3)]GlcNAc
# Outline: as §1
# [14] = molecular target: Neu5Ac(a2-3)Gal(b1-4)[Fuc(a1-3)]GlcNAc(b1-2)Man
# Outline: as §1
# [15] = molecular target: Neu5Ac(a2-3)Gal(b1-4)[Fuc(a1-3)]GlcNAc(b1-3)Gal
# Outline: as §1
# [16] = molecular target: Neu5Ac(a2-3)Gal(b1-4)[Fuc(a1-3)]GlcNAc(b1-3)Gal(b1-4)GlcNAc
# Outline: as §1
# [17] = molecular target: Neu5Ac(a2-3)Gal(b1-4)[Fuc(a1-3)]GlcNAc(b1-3)Gal(b1-4)[Fuc(a1-3)]GlcNAc(b1-3)Gal(b1-4)[Fuc(a1-3)]GlcNAc
# Outline: as §1
# [18] = molecular target: Neu5Ac(a2-3)Gal(b1-4)[Fuc(a1-3)]GlcNAc(b1-3)GalNAc
# Outline: as §1
# [19] = molecular target: Neu5Ac(a2-3)Gal(b1-4)[Fuc(a1-3)]GlcNAc(b1-6)[Gal(b1-3)]GalNAc
# Outline: as §1
# [20] = molecular target: Neu5Ac(a2-3)Gal(b1-4)[Fuc(a1-3)]GlcNAc(b1-6)[Neu5Ac(a2-3)Gal(b1-3)]GalNAc
# Outline: as §1
# [21] = molecular target: Neu5Ac(a2-3)Gal(b1-4)[Fuc(a1-3)]GlcNAc6S
# Outline: as §1
# [22] = molecular target: Neu5Ac(a2-3)Gal6S(b1-4)GlcNAc
# Outline: as §1
# [23] = molecular target: Neu5Ac(a2-3)Gal6S(b1-4)[Fuc(a1-3)]GlcNAc
# Outline: as §1
# Neu5Ac(a2-3)GalNAc = molecular target: Neu5Ac(a2-3)GalNAc
# Outline: as §1
# [24] = molecular target: Neu5Ac(a2-3)GalNAc(b1-4)GlcNAc
# Outline: as §1
# [25] = molecular target: Neu5Ac(a2-3)[GalNAc(b1-4)]Gal(b1-4)Glc
# Outline: as §1
# [26] = molecular target: Neu5Ac(a2-3)[GalNAc(b1-4)]Gal(b1-4)GlcNAc
# Outline: as §1
# [27] = molecular target: Neu5Ac(a2-3)[GalNAc(b1-4)]Gal(b1-4)GlcNAc(b1-3)GalNAc
# Outline: as §1
# [28] = molecular target: Neu5Ac(a2-3)[Neu5Ac(a2-6)]GalNAc
# Outline: as §1
# Neu5Ac(a2-6)Gal = molecular target: Neu5Ac(a2-6)Gal
# Outline: as §1
# [29] = molecular target: Neu5Ac(a2-6)Gal(b1-3)GlcNAc(b1-3)[Gal(b1-4)GlcNAc(b1-6)]Gal(b1-4)Glc
# Outline: as §1
# Neu5Ac(a2-6)Gal(b1-4)Glc = molecular target: Neu5Ac(a2-6)Gal(b1-4)Glc
# Outline: as §1
# [30] = molecular target: Neu5Ac(a2-6)Gal(b1-4)GlcNAc
# Outline: as §1
# [31] = molecular target: Neu5Ac(a2-6)Gal(b1-4)GlcNAc(b1-2)Man
# Outline: as §1
# [32] = molecular target: Neu5Ac(a2-6)Gal(b1-4)GlcNAc(b1-2)Man(a1-3)Man(b1-4)GlcNAc(b1-4)GlcNAc
# Outline: as §1
# [33] = molecular target: Neu5Ac(a2-6)Gal(b1-4)GlcNAc(b1-2)Man(a1-3)[Gal(b1-4)GlcNAc(b1-2)Man(a1-6)]Man(b1-4)GlcNAc(b1-4)GlcNAc
# Outline: as §1
# [34] = molecular target: Neu5Ac(a2-6)Gal(b1-4)GlcNAc(b1-2)Man(a1-3)[GlcNAc(b1-2)Man(a1-6)]Man(b1-4)GlcNAc(b1-4)GlcNAc
# Outline: as §1
# [35] = molecular target: Neu5Ac(a2-6)Gal(b1-4)GlcNAc(b1-2)Man(a1-3)[GlcNAc(b1-4)][Neu5Ac(a2-6)Gal(b1-4)GlcNAc(b1-2)Man(a1-6)]Man(b1-4)GlcNAc(b1-4)GlcNAc
# Outline: as §1
# [36] = molecular target: Neu5Ac(a2-6)Gal(b1-4)GlcNAc(b1-2)Man(a1-3)[Man(a1-6)]Man(b1-4)GlcNAc(b1-4)GlcNAc
# Outline: as §1
# [37] = molecular target: Neu5Ac(a2-6)Gal(b1-4)GlcNAc(b1-2)Man(a1-3)[Neu5Ac(a2-3)Gal(b1-4)GlcNAc(b1-2)Man(a1-6)]Man(b1-4)GlcNAc(b1-4)GlcNAc
# Outline: as §1
# [38] = molecular target: Neu5Ac(a2-6)Gal(b1-4)GlcNAc(b1-2)Man(a1-3)[Neu5Ac(a2-6)Gal(b1-4)GlcNAc(b1-2)Man(a1-6)]Man(b1-4)GlcNAc(b1-4)GlcNAc
# Outline: as §1
# [39] = molecular target: Neu5Ac(a2-6)Gal(b1-4)GlcNAc(b1-2)Man(a1-3)[Neu5Ac(a2-6)Gal(b1-4)GlcNAc(b1-2)Man(a1-6)]Man(b1-4)GlcNAc(b1-4)[Fuc(a1-6)]GlcNAc
# Outline: as §1
# [40] = molecular target: Neu5Ac(a2-6)Gal(b1-4)GlcNAc(b1-2)Man(a1-6)Man(b1-4)GlcNAc(b1-4)GlcNAc
# Outline: as §1
# [41] = molecular target: Neu5Ac(a2-6)Gal(b1-4)GlcNAc(b1-2)Man(a1-6)[Gal(b1-4)GlcNAc(b1-2)Man(a1-3)]Man(b1-4)GlcNAc(b1-4)GlcNAc
# Outline: as §1
# [42] = molecular target: Neu5Ac(a2-6)Gal(b1-4)GlcNAc(b1-2)Man(a1-6)[GlcNAc(b1-2)Man(a1-3)]Man(b1-4)GlcNAc(b1-4)GlcNAc
# Outline: as §1
# [43] = molecular target: Neu5Ac(a2-6)Gal(b1-4)GlcNAc(b1-2)Man(a1-6)[Man(a1-3)]Man(b1-4)GlcNAc(b1-4)GlcNAc
# Outline: as §1
# [44] = molecular target: Neu5Ac(a2-6)Gal(b1-4)GlcNAc(b1-2)[Neu5Ac(a2-6)Gal(b1-4)GlcNAc(b1-4)]Man(a1-3)[GlcNAc(b1-4)][Neu5Ac(a2-6)Gal(b1-4)GlcNAc(b1-2)[Neu5Ac(a2-6)Gal(b1-4)GlcNAc(b1-6)]Man(a1-6)]Man(b1-4)GlcNAc(b1-4)GlcNAc
# Outline: as §1
# [45] = molecular target: Neu5Ac(a2-6)Gal(b1-4)GlcNAc(b1-2)[Neu5Ac(a2-6)Gal(b1-4)GlcNAc(b1-4)]Man(a1-3)[GlcNAc(b1-4)][Neu5Ac(a2-6)Gal(b1-4)GlcNAc(b1-4)Man(a1-6)]Man(b1-4)GlcNAc(b1-4)GlcNAc
# Outline: as §1
# [46] = molecular target: Neu5Ac(a2-6)Gal(b1-4)GlcNAc(b1-2)[Neu5Ac(a2-6)Gal(b1-4)GlcNAc(b1-6)]Man(a1-6)[Neu5Ac(a2-6)Gal(b1-4)GlcNAc(b1-2)Man(a1-3)][GlcNAc(b1-4)]Man(b1-4)GlcNAc(b1-4)GlcNAc
# Outline: as §1
# [47] = molecular target: Neu5Ac(a2-6)Gal(b1-4)GlcNAc(b1-3)Gal(b1-3)GlcNAc
# Outline: as §1
binder,measurement,setting,value
rMpL (Macrolepiota procera) (protein) MSTQVSSGRTYKITNVIAGTVIDLSGEDNKSIIGYPYHSGKNQQWTFNWTGKAWTLRSASSGSYLGIEGTPAGGTRLVAVNDPFEWHIWRDEANENAFRIFVPFTNYNLDLSGYGDTTPGTPVQLWWTWEGLHQTWTIDRP,glycan array binding signal (z-score),[1],-0.383
same,glycan array binding signal (z-score),[2],0.754
same,glycan array binding signal (z-score),[3],-0.247
same,glycan array binding signal (z-score),[4],-0.021
same,glycan array binding signal (z-score),[5],-0.198
same,glycan array binding signal (z-score),[6],-0.349
same,glycan array binding signal (z-score),[7],-0.329
same,glycan array binding signal (z-score),[8],-0.206
same,glycan array binding signal (z-score),[9],-0.336
same,glycan array binding signal (z-score),[10],-0.258
same,glycan array binding signal (z-score),[11],-0.248
same,glycan array binding signal (z-score),[12],-0.449
same,glycan array binding signal (z-score),[13],-0.32
same,glycan array binding signal (z-score),[14],-0.689
same,glycan array binding signal (z-score),[15],-0.317
same,glycan array binding signal (z-score),[16],-0.208
same,glycan array binding signal (z-score),[17],-0.257
same,glycan array binding signal (z-score),[18],-0.14
same,glycan array binding signal (z-score),[19],-0.201
same,glycan array binding signal (z-score),[20],-0.185
same,glycan array binding signal (z-score),[21],-0.377
same,glycan array binding signal (z-score),[22],-0.355
same,glycan array binding signal (z-score),[23],-0.382
same,glycan array binding signal (z-score),Neu5Ac(a2-3)GalNAc,-0.431
same,glycan array binding signal (z-score),[24],-0.299
same,glycan array binding signal (z-score),[25],-0.338
same,glycan array binding signal (z-score),[26],-0.443
same,glycan array binding signal (z-score),[27],0.009
same,glycan array binding signal (z-score),[28],-0.364
same,glycan array binding signal (z-score),Neu5Ac(a2-6)Gal,-0.357
same,glycan array binding signal (z-score),[29],0.035
same,glycan array binding signal (z-score),Neu5Ac(a2-6)Gal(b1-4)Glc,-0.348
same,glycan array binding signal (z-score),[30],-0.358
same,glycan array binding signal (z-score),[31],-0.296
same,glycan array binding signal (z-score),[32],-0.29
same,glycan array binding signal (z-score),[33],-0.187
same,glycan array binding signal (z-score),[34],-0.317
same,glycan array binding signal (z-score),[35],-0.34
same,glycan array binding signal (z-score),[36],-0.264
same,glycan array binding signal (z-score),[37],-0.342
same,glycan array binding signal (z-score),[38],-0.285
same,glycan array binding signal (z-score),[39],-0.168
same,glycan array binding signal (z-score),[40],-0.322
same,glycan array binding signal (z-score),[41],0.028
same,glycan array binding signal (z-score),[42],-0.332
same,glycan array binding signal (z-score),[43],-0.279
same,glycan array binding signal (z-score),[44],-0.304
same,glycan array binding signal (z-score),[45],-0.31
same,glycan array binding signal (z-score),[46],-0.314
same,glycan array binding signal (z-score),[47],0.728
